{"source": "PubChem BioAssay AID504466", "about": "(National Center for Advancing Translational Sciences (NCATS), 2011)", "note": "Screen size: about 330,000 compounds; about 4,200 (1.3%) were called active. Inconclusive means that the source gave no clear call. Such entries were picked first, then a sample of the others. The call rests on the fitted dose curve; in most records, active means well fitted activation curve with a large enough effect; inconclusive means small, poorly fitted or top-dose-only effect; inactive means no such curve, though single readings can be large or run the other way. Potencies of inconclusive entries are doubtful fits and often do not repeat. Potency means the concentration at half of the fitted maximal effect; tags describe the fitted curve by direction and shape.", "data": [{"assay": "qHTS screen for small molecules that induce genotoxicity in human embryonic kidney (HEK293T) cells expressing luciferase-tagged ELG1; further: nearly all actives have a fitted effect of over 60% in size; on activity change, positive = activation: % of control where 0% means no effect", "conditions": "HEK293T ELG1-luciferase reporter, luminescence, 16 h; series mostly up to 46 µM; activity change, positive = activation: at the top concentration", "method_in_brief": "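Cells (2,000/well) expressing the ELG1-luciferase fusion are dosed by pin tool and kept 16 hr at 37 °C, 5% CO2. Signal comes from ONE-Glo luciferase reagent after 30 min at room temperature.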", "values": [{"smiles": "O=C(Nc1cc(Cl)ccc1N1CCCC1)C1=COCCO1", "activity change, positive = activation": "inactive: -0.381%"}, {"smiles": "Nn1c(SCc2ccccc2F)nnc1-c1cccnc1", "Potency": "inconclusive: 29.1 µM [activator, single point]"}, {"smiles": "COC(=O)C(C)N1C(=O)S/C(=C\\c2cc(C)n(-c3ccccn3)c2C)C1=O", "note": "(stereo not given)", "Potency": "active: 1.64 µM"}, {"smiles": "CCCCSc1nnc(NC(=O)CCc2ccccc2)s1", "activity change, positive = activation": "inactive: -1.62%"}, {"smiles": "CCN(CC)CCCNC(=O)CCC(=O)Nc1ccc2nc(N3CCCCC3)cc(C)c2c1", "activity change, positive = activation": "inactive: 6.95%"}, {"smiles": "COc1cccc(NC(=O)c2nnn(Cc3ccc(Br)cc3F)c2N)c1", "Potency": "inconclusive: 13 µM [activator, partial curve]"}, {"smiles": "COc1ccc(Nc2nc(N)nc(CSc3nnc(N)s3)n2)cc1", "Potency": "inconclusive: 12.6 µM [activator, single point]"}, {"smiles": "Cn1nc(C(=O)NCCCN2CCCCC2)c2c1-c1ccccc1SC2", "Potency": "inconclusive: 23.1 µM [activator, partial curve, poor fit]"}, {"smiles": "Cc1cccc(C)c1-n1c(C)nn(CC2CC2)c1=O", "activity change, positive = activation": "inactive: -0.224%"}, {"smiles": "O=C(CCS(=O)(=O)c1ccccc1)N(CCCN1CCOCC1)c1nc2c(F)cccc2s1", "Potency": "inconclusive: 32.6 µM [activator, partial curve, poor fit]"}, {"smiles": "CC(=Nc1ccc(C)cc1C)c1sc2ccccc2c1O", "Potency": "inconclusive: 2.59 µM [activator, partial curve]"}, {"smiles": "CCCOc1ccc(N2C(=O)CC(SCCN)C2=O)cc1", "note": "(stereo not given)", "Potency": "inconclusive: 3.98 µM [activator, partial curve, poor fit]"}, {"smiles": "COc1ccc(NC(=O)c2ccc3ncsc3c2)cc1", "Potency": "inconclusive: 11.6 µM [activator, partial curve]"}, {"smiles": "COc1cc(C)ccc1OCC(=O)Nc1ccc2c(c1)OCO2", "Potency": "inconclusive: 18.3 µM [activator, partial curve, poor fit]"}, {"smiles": "Cc1ccccc1NS(=O)(=O)c1ccc(C(=O)N2CCCCCCC2)cc1", "Potency": "inconclusive: 23.1 µM [activator, partial curve, poor fit]"}, {"smiles": "O=C1N/C(=C\\c2ccccc2)c2ccccc21", "Potency": "inconclusive: 20 µM [activator, partial curve, poor fit]"}, {"smiles": "Cc1ccccc1NC(=O)Cc1nc(COC(=O)c2cc(Br)ccc2O)cs1", "activity change, positive = activation": "inactive: -0.138%"}, {"smiles": "COCCn1c(C)cc(C(=O)COC(=O)c2cccnc2SC)c1C", "Potency": "inconclusive: 1.83 µM [activator, partial curve]"}, {"smiles": "O=C(Nc1ccc2c(c1)OCCO2)c1cccc(Cl)c1", "Potency": "inconclusive: 1.83 µM [activator, full curve]"}, {"smiles": "CSc1nc(O)c(N=Nc2ccc(F)cc2F)c(=O)[nH]1", "Potency": "inconclusive: 18.3 µM [activator, single point]"}, {"smiles": "COc1cccc(CNc2ccc(F)c(Cl)c2)c1", "Potency": "inconclusive: 32.6 µM [activator, partial curve, poor fit]"}, {"smiles": "Cc1ccnc(NC(=O)CC(NC(=O)c2ccccc2Cl)c2ccccc2)c1", "note": "(stereo not given)", "Potency": "active: 20.6 µM"}, {"smiles": "O=c1c2[nH]c3ccccc3c2nc2n1CCS2", "activity change, positive = activation": "inactive: 13.1%"}, {"smiles": "Cc1c(NC(=S)NC(=O)c2cccc(Br)c2)c(=O)n(-c2ccccc2)n1C", "activity change, positive = activation": "inactive: -2.15%"}, {"smiles": "COc1ccc(NC(=O)CSc2nnnn2C)cc1", "activity change, positive = activation": "inactive: 0.424%"}, {"smiles": "O=C(CNC(=O)c1ccccc1F)c1ccccc1", "Potency": "active: 4.11 µM"}, {"smiles": "CCOc1cc(/C=C(/C#N)C(=O)Nc2ccc(O)cc2)cc(Br)c1O", "Potency": "inconclusive: 16.4 µM [activator, partial curve, poor fit]"}, {"smiles": "CCc1ccc(OCC(=O)Nc2ncn[nH]2)cc1", "Potency": "inconclusive: 9.2 µM [activator, partial curve]"}, {"smiles": "Cc1ccc(-c2csc(NC(=O)c3ccco3)n2)cc1C", "Potency": "inconclusive: 20.6 µM [activator, partial curve]"}, {"smiles": "Cc1nnc(NC(=O)CSc2ccc(-c3ccccn3)nn2)s1", "Potency": "inconclusive: 20.6 µM [activator, single point]"}, {"smiles": "CC(C)C(=O)N=c1sc2cc(F)cc(F)c2n1C", "Potency": "inconclusive: 16.4 µM [activator, partial curve, poor fit]"}, {"smiles": "COc1ccc(CNC(=O)COC(=O)Cc2ccc(Br)cc2)cc1", "activity change, positive = activation": "inactive: 1.27%"}, {"smiles": "CN(C)c1nc(N)nc(CSc2ncc(Cl)cc2Cl)n1", "Potency": "inconclusive: 14.6 µM [activator, partial curve, poor fit]"}, {"smiles": "O=C(Nc1cccc2cccnc12)c1cccc(Cl)c1", "Potency": "inconclusive: 25.9 µM [activator, single point]"}, {"smiles": "O=C(N1CCCCC1)N1CCN(S(=O)(=O)c2ccc(Cl)cc2)CC1", "Potency": "inconclusive: 29.1 µM [activator, partial curve, poor fit]"}, {"smiles": "Cc1cc(C(=O)Nc2cccc([N+](=O)[O-])c2)c(C)o1", "activity change, positive = activation": "inactive: 0.144%"}, {"smiles": "Cc1ccccc1-c1nnc(NC(=O)c2cc3ccccc3oc2=O)s1", "activity change, positive = activation": "inactive: 5.09%"}, {"smiles": "Cc1nc(CNS(=O)(=O)c2ccc(Oc3ccccc3)cc2)cs1", "Potency": "inconclusive: 32.6 µM [activator, partial curve, poor fit]"}, {"smiles": "N#Cc1c2c(c(-c3ccccc3Cl)[nH]c1=S)CCCC2", "activity change, positive = activation": "inactive: -0.552%"}, {"smiles": "Nc1nc(NCC2CCCO2)nc(Nc2cccc(Cl)c2)c1[N+](=O)[O-]", "note": "(stereo not given)", "Potency": "inconclusive: 23.1 µM [activator, partial curve, poor fit]"}, {"smiles": "CN(C)c1cccc(C(=O)NNC(=O)C23CC4CC(CC(C4)C2)C3)c1", "Potency": "inconclusive: 13 µM [activator, partial curve, poor fit]"}, {"smiles": "CCOC(=O)c1ccc2ncc(C(=O)OCC)c(Nc3ccc(N4CCOCC4)cc3)c2c1", "activity change, positive = activation": "inactive: -14.1%"}, {"smiles": "CCOc1ccc2nc(NC(=O)C34CC5CC(CC(NC(C)=O)(C5)C3)C4)sc2c1", "activity change, positive = activation": "inactive: 0%"}, {"smiles": "CN1CCC(=NOc2ccc([N+](=O)[O-])cc2)CC1", "Potency": "inconclusive: 20.6 µM [activator, single point]"}, {"smiles": "O=C(OCc1ccccc1)N1CCc2ccccc21", "Potency": "active: 16.4 µM"}, {"smiles": "O=c1c2ccccc2cnn1CCOc1cccc(Br)c1", "Potency": "inconclusive: 3.66 µM [activator, full curve]"}, {"smiles": "COc1ccc(CNc2ccc(C)c(C)c2)cc1", "Potency": "inconclusive: 23.1 µM [activator, partial curve, poor fit]"}, {"smiles": "CN(C(=O)CSc1ncnc2sccc12)C1CCCCC1", "Potency": "inconclusive: 11.6 µM [activator, partial curve, poor fit]"}, {"smiles": "CSc1nnc(C2CCN(CC(=O)Nc3ccccc3N3CCOCC3)CC2)n1C", "activity change, positive = activation": "inactive: 0.363%"}, {"smiles": "N#Cc1ccc(/C=C/C(=O)c2cccnc2)cc1", "Potency": "inconclusive: 25.9 µM [activator, partial curve, poor fit]"}, {"smiles": "COc1ccc(Br)c(-c2nnc(CS(=O)(=O)c3ccccc3)o2)c1", "Potency": "inconclusive: 7.3 µM [activator, partial curve, poor fit]"}, {"smiles": "N/C(=N\\O)c1ccc(NC(=O)c2ccc(Br)o2)cc1", "Potency": "active: 23.1 µM"}, {"smiles": "O=c1cc(-c2ccsc2)oc2ccccc12", "Potency": "inconclusive: 20.6 µM [activator, partial curve, poor fit]"}, {"smiles": "COc1ccc(S(=O)(=O)Nc2ccc3c(c2)n(C)c(=O)n3C)cc1", "Potency": "inconclusive: 25.9 µM [activator, partial curve, poor fit]"}, {"smiles": "N/C(=N\\OC(=O)c1ccccc1)c1ccncc1", "Potency": "inconclusive: 9.2 µM [activator, partial curve]"}, {"smiles": "O=C1NC(c2ccccc2Br)=N/C1=C\\c1ccco1", "Potency": "inconclusive: 23.1 µM [activator, single point]"}, {"smiles": "COc1ccc(O)c(C(=O)C2c3ccccc3C(=O)N2c2ccc(C)cc2)c1", "note": "(stereo not given)", "Potency": "inconclusive: 18.3 µM [activator, single point]"}, {"smiles": "CCCN(Cc1nnc(-c2cccs2)o1)C(=O)CN1C(=O)NC2(CCC(C)CC2)C1=O", "note": "(stereo not given)", "activity change, positive = activation": "inactive: 1.89%"}, {"smiles": "O=C(NC(=S)Nn1cnc2c(cnn2-c2ccccc2)c1=O)c1ccccc1", "activity change, positive = activation": "inactive: 0.672%"}, {"smiles": "Cc1nn2c(COc3ccc(NC(=O)C(C)C)cc3)nnc2c2ccccc12", "Potency": "inconclusive: 14.6 µM [activator, partial curve, poor fit]"}, {"smiles": "CCOc1ccc(CN2CCN(Cc3cc4c(cc3Cl)OCO4)CC2CCO)cc1", "note": "(stereo not given)", "activity change, positive = activation": "inactive: -4.11%"}, {"smiles": "COC(=O)CSc1ncnc2c1sc1nc3c(cc12)COC(C)(C)C3", "activity change, positive = activation": "inactive: -8.51%"}, {"smiles": "COC(=O)CSc1nc2cc(OC)ccc2cc1C#N", "Potency": "active: 1.46 µM"}, {"smiles": "COc1ccc(N2Cc3ccccc3C2=O)cc1", "Potency": "active: 1.83 µM"}, {"smiles": "CCOc1ccc(/C=C2\\SC(=S)N(CCC(=O)Nc3cccc(C(=O)O)c3)C2=O)cc1", "Potency": "inconclusive: 20.6 µM [activator, partial curve, poor fit]"}, {"smiles": "CC(Oc1ccc(Cl)cc1Cl)c1nc(-c2ccccn2)no1", "note": "(stereo not given)", "Potency": "inconclusive: 32.6 µM [activator, single point]"}, {"smiles": "O=C(COc1ccc2ccc(=O)oc2c1)Nc1ccc(N2CCOCC2)cc1", "activity change, positive = activation": "inactive: 7.44%"}, {"smiles": "CC(C)C(c1nnnn1C1CCCC1)N1c2ccccc2CC1C", "note": "(stereo not given)", "Potency": "inconclusive: 29.1 µM [activator, partial curve, poor fit]"}, {"smiles": "NC(=O)C1=C[C@H](c2ccc(Br)cc2)C[C@H](OCc2ccc(CO)cc2)O1", "Potency": "inconclusive: 20.6 µM [activator, partial curve, poor fit]"}, {"smiles": "N#Cc1ccc(-c2nc3cc(Cl)ccc3c(=O)n2O)cc1", "activity change, positive = activation": "inactive: -5.66%"}, {"smiles": "CN(C)S(=O)(=O)Oc1ccc(C(=O)Nc2cccc(Cl)c2)cc1", "Potency": "inconclusive: 2.59 µM [activator, single point]"}, {"smiles": "Cc1ccc(-c2nn3cnnc3c3ccccc23)cc1C", "activity change, positive = activation": "inactive: -1.9%"}, {"smiles": "O=c1cccccc1NN=C1CCCCCC1", "Potency": "active: 14.6 µM"}, {"smiles": "Cc1cc(C)c(C)c(OCC(=O)O/N=C(\\N)c2ccncc2)c1", "activity change, positive = activation": "inactive: -5.26%"}, {"smiles": "O=C(OCc1nc2ccccc2[nH]1)C12CC3CC(CC(C3)C1)C2", "activity change, positive = activation": "inactive: -2.79%"}]}]}
